Hit rate of the full screen: of about 110,000 compounds, about 230 (0.21%) showed an effect of 50% or more. This is one part of the list.
target: DPAP1 (Plasmodium falciparum, UniProt Q8IIJ9); assay: primary screen, percent inhibition; read by cleavage of a fluorogenic dipeptide substrate; higher = more effect of the substance; set-up: species or system P. falciparum D10 trophozoite lysates; single well
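Also: 30 min substrate incubation versus DMSO and 10 µM JCP410 controls.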

DPAP1, sequence (Q8IIJ9 whole entry, looked up): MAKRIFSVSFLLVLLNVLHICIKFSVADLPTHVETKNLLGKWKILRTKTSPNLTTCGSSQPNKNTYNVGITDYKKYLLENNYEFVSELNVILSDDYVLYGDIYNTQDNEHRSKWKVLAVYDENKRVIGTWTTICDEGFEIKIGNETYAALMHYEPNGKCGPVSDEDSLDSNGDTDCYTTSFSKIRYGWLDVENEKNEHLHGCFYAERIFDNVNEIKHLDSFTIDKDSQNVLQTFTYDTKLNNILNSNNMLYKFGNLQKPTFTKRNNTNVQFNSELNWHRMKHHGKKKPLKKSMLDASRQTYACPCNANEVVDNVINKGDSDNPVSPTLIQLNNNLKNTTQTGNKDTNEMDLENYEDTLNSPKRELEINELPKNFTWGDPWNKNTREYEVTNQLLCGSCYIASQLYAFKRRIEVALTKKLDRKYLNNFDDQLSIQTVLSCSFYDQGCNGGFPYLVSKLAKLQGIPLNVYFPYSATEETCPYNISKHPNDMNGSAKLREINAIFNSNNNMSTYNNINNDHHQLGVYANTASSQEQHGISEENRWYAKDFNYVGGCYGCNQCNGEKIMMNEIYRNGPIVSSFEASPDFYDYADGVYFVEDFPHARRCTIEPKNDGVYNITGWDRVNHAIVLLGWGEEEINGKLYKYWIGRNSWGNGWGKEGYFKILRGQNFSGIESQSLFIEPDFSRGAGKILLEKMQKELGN

SMILES | % Inhibition @ 10 uM
CC(Oc1ccccc1)C(=O)Nc1ccc2ccccc2c1 (centres unmarked) | 0.907%
CCN(CC)c1ccc(C(C2=C(O)CC(C)(C)CC2=O)C2C(=O)CC(C)(C)CC2=O)c(O)c1 (centres unmarked) | 4.8%
CCSCCOC(=O)C1=C(C)NC(=O)CC1c1cccc(Cl)c1Cl (centres unmarked) | -6.14%
O=C1c2cccnc2C(O)N1Cc1ccccc1 (centres unmarked) | 3.96%
COc1ccc(CN2CCN(CC3CC=CCC3)CC2)c(OC)c1OC (centres unmarked) | -5.26%
COc1ccc(OCc2cccc(C(=O)Nc3cc(C)on3)c2)cc1 | -1.04%
CCCNCc1cc2ccccc2o1 | -2.36%
COc1cc(CN2CCCC(C(=O)N3CCCCCC3)C2)ccc1OCc1ccccc1 (centres unmarked) | 0.565%
Cc1cccc(-n2ncc3c(N4CCC5(CC4)OCCO5)ncnc32)c1 | 5.69%
NC(=O)c1nn(-c2ccccc2)nc1NC(=O)CSc1nc(O)c2c3c(sc2n1)CCCC3 | 18.2%
CN(Cc1ccccc1)C(=O)CN(c1ccccc1Cl)S(=O)(=O)c1ccccc1 | 0.964%
Fc1cccc(C2Nc3cccc4cccc(c34)N2)c1 | -7.27%
O=C(c1ccc2c(Cl)c3c(nc2c1)CCCC3)N1CCN(Cc2ccc3c(c2)OCO3)CC1 | -3.99%
Cc1cc(C)c(S(=O)(=O)Nc2cc(Cl)ccc2Cl)c(C)c1 | 0.135%
O=C(NCc1cccc(Cl)c1)c1nc(O)c2nnn(CC3CCCO3)c2n1 (centres unmarked) | -1.11%
COCCNC(=O)/C(C#N)=C/c1c(Oc2ccc(C)cc2)nc2ccccn2c1=O | -1.86%
COc1ccccc1-c1nc(S)c2c(n1)Oc1ccccc1C2 | 0.383%
CN(C)/C=C1/C(=O)NC(=O)N(c2ccccc2)C1=O | 2.09%
O=C(c1ccc(CSc2nc3ccncc3[nH]2)cc1)N1CCN(C2CCCCC2)CC1 | -5.19%
COc1ccc(C)cc1-n1cnc2sc(C)c(C)c2c1=O | -8.46%
O=C(c1cc(F)c(F)cc1Cl)N1CCN(c2ccc([N+](=O)[O-])c3cccnc23)CC1 | -2.97%
O=S1(=O)N=C(NCCCCO)c2ccccc21 | 0.758%
CSc1nc(=O)c2c(n1C)NC(=O)CC2c1ccc(F)cc1F (centres unmarked) | 0.596%
Cc1[nH]c2ccc(F)cc2c1CCNC(=S)NCc1ccccc1 | -3.94%
CCOC(=O)c1noc2ncnc(N3CCCN(Cc4ccccc4Cl)C3)c12 | 4.48%
c1ccc(CN2CCC(NC3CCCCCCC3)CC2)cc1 | -1.81%

SMILES | % Inhibition @ 10 uM
O=C(O)CCC(=O)NCc1ccc(C(=O)O)cc1 | 0.00784%
CCCCc1nc(N)c(C#N)c(-c2cccc(Br)c2)c1CCC | 1.88%
CCCCCCCn1nc(C)c(C(=O)c2ccccc2)c1C | -7.42%
CC1=C(C(=O)Nc2ccc(Br)cc2)C(c2ccc([N+](=O)[O-])cc2)NC(S)=N1 (centres unmarked) | -2.91%
COc1ccccc1CNC(=O)c1ccc(CSc2nc3ccncc3[nH]2)cc1 | -5.43%
CC1=C(C(=O)Nc2ccccc2C)C(c2ccncc2)n2nc(CCCO)nc2N1 (centres unmarked) | -1.04%
COc1ccc(CC(=O)Nc2cccc(C(F)(F)F)c2)cc1 | 4.6%
O=C(CSc1n[nH]c2ncnn12)NCCc1ccccc1 | -4.23%
CC(C)C(=O)Nc1ccc2oc(-c3ccccc3F)nc2c1 | 6.79%
CCCCCCCCCC(=O)NC(C)C(=O)O (centres unmarked) | 5.54%
Cn1c(=O)[nH]c(=O)c2c1nc1n2CCC(=O)N1Cc1ccccc1 | -10.2%
Cc1cc(-c2ccccc2)c(C#N)c(=O)n1C(=O)c1ccccc1F | -4.43%
Oc1c2c3ccccc3nc-2c2cccc3c2n1CC3 | -3.04%
CC1(C)CC(n2nc(O)c3c2NC(=O)CSC3c2ccc(OCc3ccccc3)cc2)CCO1 (centres unmarked) | 1.25%
Cc1nnc(N2CCC(C(=O)NCc3ccccn3)CC2)c2nn(-c3ccccc3)c(C)c12 | 1.97%
O=C1c2cccnc2C(=O)N1c1cccc(-c2nc3ccccc3o2)c1 | -1.28%
CCC1(CC)C(=O)N=C(Nc2ccc(OC)cc2)NC1=O | 1.66%
COc1ccc(CNC(=O)c2cc3c(s2)CS(=O)C3)cc1 (centres unmarked) | -3.94%
COc1ccc(C(=O)/N=c2\sc(C)c(-c3ccccc3)n2C)cc1OC | -3.25%
Cc1ccc(OCC(O)CN2CCOCC2)c(C)c1 (centres unmarked) | 5.39%
Cc1c[n+]([O-])n(-c2ccc(C(=O)O)cc2)n1 | 1.3%
COc1cccc(NC(=O)CN(c2ccc(OC)c(Cl)c2)S(C)(=O)=O)c1 | 1.52%
CN1/C(=C\C(=O)c2ccco2)C(C)(C)c2ccccc21 | 3.53%
CC1(C)Cc2ccccc2C(NC(Cc2ccccc2)C(=O)O)=N1 (centres unmarked) | 0.331%
CCN(C(=O)c1ccco1)c1ccccc1C | 3.09%
CNC(=O)OCc1cccc(COC(=O)NC)n1 | -3.06%

SMILES | % Inhibition @ 10 uM
CCOC(=O)C1=C(CN2CCN(Cc3ccccc3)CC2)NC(=O)NC1c1ccccc1 (centres unmarked) | -1.3%
COc1cc(C(=O)Nc2ccccc2Br)cc(OC)c1OC | -6.39%
COc1cc(CN2CCN(Cc3ccc(C)cc3)CC2)cc2c1OCO2 | 3.5%
CC1CN(Cc2ccc(Br)s2)CC(C)O1 (centres unmarked) | 0.215%
COc1ccc(C(=O)N2CCC(C(=O)O)CC2)cc1 | -3.74%
Cc1cc2ccccc2c(=O)n1CC(=O)NC1CCCCCC1 | 3.54%
CCOC(=O)N1CCN(C(=O)C(C)N(c2ccc(OCC)cc2)S(C)(=O)=O)CC1 (centres unmarked) | 2.44%
Cc1ccc(-c2nc(CS(=O)(=O)CC(=O)NC3CCCc4ccccc43)c(C)o2)cc1 (centres unmarked) | -3.7%
Cc1cc(C)cc(C(=O)NCCn2c(C)cc3ccccc32)c1 | 0.205%
COc1cc(CNCc2cccnc2)ccc1OCc1ccccc1 | -0.62%
N#CC(C#N)NC(=O)[C@H](CS(=O)(=O)Cc1ccccc1)NC(=O)N1CCOCC1 | -0.214%
Cc1nn(CCC(=O)N2CCN(c3ccccn3)CC2)c(=O)c2nn(-c3ccccc3)c(C)c12 | -7.13%
CC(NC(=O)c1ccncc1)C(c1cccs1)N1CCN(C)CC1 (centres unmarked) | 0.66%
CC(C)CC(NC(=O)OCc1ccccc1)C(=O)NC(CCc1ccccc1)C(=O)C1=NCC(c2ccccc2)O1 (centres unmarked) | -7.36%
Cc1cc(C)c2c(n1)sc1c(C)c3c(nc12)CCC3 | 3.72%
COc1ccccc1NC(=O)C1CCCC1 | -2.34%
CCC(=O)Nc1cc2nc(O)cc(C)c2cc1C | 0.777%
COc1ccc(S(=O)(=O)Nc2ccc(OC)c(Cl)c2)cc1C | 2.95%
COc1ccc(C2CC3=NC(C)=C(C#N)C(c4ccc(Cl)c(Cl)c4)C3=C(O)C2)cc1 (centres unmarked) | -0.436%
Cc1ccc2oc(=O)c(-c3nc(-c4ccncc4)no3)cc2c1 | -3.13%
c1ccc(-c2ccc(Oc3nc(-c4ccccc4)cc(-c4ccccc4)n3)cc2)cc1 | 0.247%
CCCCNC(=O)N1CCN(Cc2ccccc2)CC1 | 0.528%
Cc1ccc(C(O)(COc2ccc(F)cc2)c2ccc(C)cc2)cc1 | 2.51%
O=C1C(Cl)=C(NCCc2ccccc2)C(=O)N1Cc1ccccc1 | -3.9%
CC1(C)CC(=O)C(/C=N/CCN2CCN(C3OC(=O)c4ccccc43)CC2)=C(O)C1 (centres unmarked) | -1.92%
CC(NC(=O)/C(=C/c1ccco1)NC(=O)c1cccc(Br)c1)C(=O)O (centres unmarked) | -6.36%

SMILES | % Inhibition @ 10 uM
CCN(CC)S(=O)(=O)N1CCC(C(=O)NCCCOC)CC1 | 2.79%
CC1=C(C#N)C(C(F)(F)F)(C(F)(F)F)NC(C2CCCCC2)=N1 | -3.33%
CCc1ccc(C2C(C#N)=C(C)N=C3CC(C)(C)CC(O)=C32)cc1 (centres unmarked) | 1.4%
CCn1c(C)c(C)c2cc(C(=O)NCCc3ccccc3C)ccc21 | -7.04%
Cn1c(=O)c2c(ncn2CC(=O)NCCN2CCOCC2)n(C)c1=O | 1.26%
FC(F)(F)c1cc(-c2ccco2)nc(-n2cnc3ccccc32)n1 | -3.12%
COC(=O)c1nc2n(n1)C(c1ccccc1Cl)C1=C(O)CCCC1=N2 (centres unmarked) | -1.62%
COC(=O)c1ccc2nc(NC(=O)CSc3nc4ccccc4o3)sc2c1 | -6.41%
O=c1c(Cl)nc(Cl)c(-c2ccccc2)n1Cc1ccccc1 | 1.43%
O=C(Nc1ccccc1)Nc1nc(-c2ccc(F)cc2)cs1 | -1.61%
O=C(NCCN1CCOCC1)c1cc(Sc2ccccc2C(F)(F)F)nc2ccccc12 | 6.32%
CCN1CCN(CCCNC(=O)c2cc3c(C)nc4ccccc4c3o2)CC1 | -1.7%
O=C(Cc1ccc(Cl)cc1)Nc1nonc1-c1ccccc1 | 44.7%
CC(Oc1cccc(NC(=O)c2cccs2)c1)C(=O)c1ccccc1 (centres unmarked) | -0.884%
COC(=O)C(NC(=O)c1ccccc1Br)C(C)C (centres unmarked) | -4.43%
COC(=O)c1cn(C(=O)c2cccs2)c2ccccc12 | 2.56%
CC(C(=O)NCc1ccc2c(c1)OCO2)n1ccc2cc(S(=O)(=O)N3CCCCCC3)ccc21 (centres unmarked) | 7.52%
CCCc1[nH]nc2c1C(c1ccc(O)c(OCC)c1)C(C#N)=C(N)O2 (centres unmarked) | -2.8%
CCC(Sc1nc2nnc(C)c-2c(N)n1-c1ccccc1Cl)C(=O)N1CCOCC1 (centres unmarked) | 2.6%
COc1ccc(NC2=C(Cl)C(=O)N(c3ccc(C)cc3)C2=O)c(OC)c1 | 0.385%
O=C(O)CCCC(=O)N1CCN(C(c2ccccc2)c2ccccc2)CC1 | -1.28%
COc1cc(CN2CCN(CCO)CC2)cc(Br)c1O | 1.83%
CCc1ccc(CNC(=O)c2cc3c(Cl)ccc4c3n2CCO4)cc1 | -2.74%

From article PMC6919601, “Identification of Plasmodium dipeptidyl aminopeptidase allosteric inhibitors by high throughput screening” (PLoS ONE, 2019)
